From PubChem BioAssay AID686978 (National Center for Advancing Translational Sciences (NCATS), 2013)
Values joined by “and” are separate entries in the source; they are usually repeats but may differ in a detail not shown here. Identical values can stand only once. Out of some 420,000 compounds screened, about 64,000 (15%) were called active. The shares of active, inactive and inconclusive entries below differ from those in the screen. Calls follow the shape of the dose curve; as a rule, active = well fitted inhibition curve with a large enough effect; inconclusive = small, poorly fitted or top-dose-only effect; inactive = flat fitted curve, though single readings scatter. No potency is given beside an inconclusive call; the fits are too rough.

Assay: qHTS for Inhibitors of human tyrosyl-DNA phosphodiesterase 1 (TDP1): qHTS in cells in absence of CPT; also: nearly all actives have a fitted effect of over 55% in size
Details: DT40 Tdp1-/- hTDP1 cells, no CPT, ATP luminescence, 48 h; activity change, negative = growth inhibition: at 46.2 µM (top of the series)
In short: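 Readout: luminescence from CellTiter-Glo after 30 min in the dark at RT. Cells: DT40 Tdp1-/- with stable hTDP1, 400/well. Exposure: compounds alone, ≥48 hr, 37 °C.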
% is scaled to controls: 0 for no effect and ±100 for the full control effect; potency is read from the fitted curve at half-maximal effect; tags tell the direction and shape of the fitted curve.

SMILES	activity change, negative = growth inhibition	Potency
Cc1cccc(C)c1N1C(=O)C(Cl)=C(N2CCCC2)C1=O	inactive: -3.59%	
COc1ccccc1C=NN1C(=O)CSC1=S	inactive: -16.2%	
COc1cc(OC)cc(C2=Cc3ccccc3C(CC(C)=O)N2c2ccc(-c3cccs3)cc2)c1 (stereo not drawn)		active: 20.6 µM
Cn1ccnc1-c1ccc(-c2nccn2C)cc1	inactive: 10.1%	
COc1ccc(CCNC(=O)C(=O)NCCOc2ccccc2Cl)cc1OC		inconclusive [inhibitor, single point]
COc1ccc(CNC(=O)C2CCCN2S(=O)(=O)c2ccccc2)cc1 (stereo not drawn)	inconclusive: -33.2% [inhibitor]	
COc1ccccc1CCNC(=O)C1CCN(c2nnc(C)c3c(C)n(-c4ccc(C)cc4)nc23)CC1		active: 5.17 µM and active: 2.91 µM
C/C(=N\NC(=O)CN(c1ccccc1)S(C)(=O)=O)c1ccccc1O		inconclusive [inhibitor, single point]
COc1ccc([C@H]2CC(=O)C=C(c3ccc(-c4ccccc4)c(F)c3)C2)cc1	inactive: -3.1%	
CCc1nc2ccc(C(=O)N(C)Cc3ccco3)cn2c1N(C)CCCc1ccccc1		active: 16.4 µM
O=c1c(Cl)c(N2CCOCC2)cnn1-c1ncc(C(F)(F)F)cc1Cl	inconclusive: -38% [inhibitor]	
CCOc1ccc(C(=O)C2CCN(C(=O)c3ccccc3C(=O)O)CC2)cc1	inactive: -6.36%	
O=c1cc(C(F)(F)F)nc(SCc2cccc3ccccc23)[nH]1		inconclusive [inhibitor, single point]
COc1ccccc1N1CCN(S(=O)(=O)CCNC(=O)c2cccc(F)c2)CC1	inconclusive: -31.3% [inhibitor]	
Cc1ccn2c(C(=O)CSc3ccccc3)c(C)nc2c1		active: 8.2 µM
CN(C)Cc1ccccc1-c1nc(N(C)C)c2ccccc2n1		inconclusive [inhibitor, single point]
CCCCN(C)C(=O)c1nc2ccccn2c1CN1CCN(C/C=C/c2ccccc2)CC1		active: 25.9 µM
Cc1ccc(OCC(=O)Nc2ccc(O)c(C(=O)O)c2)cc1C	inactive: -5.74%	
Cc1ccc2nc(NC(=O)C3=NN(c4ccccc4)C(=O)CC3)sc2c1	inactive: -13.4%	
O=C(Nc1nnc(S(=O)(=O)N2CCCCCC2)s1)c1ccc(Cl)cc1		inactive
Cc1cccc(C)c1NC(=O)N1CC=C(n2c(=O)[nH]c3ccccc32)CC1		active: 20.6 µM
COc1ccc(CCC(=O)NNC(=O)Nc2ccc(OC)c(OC)c2)cc1	inactive: 24.6%	
COc1ccc(Cl)cc1NC(=O)CSc1nnc(Cc2cccn2C)n1-c1ccc(F)cc1		inconclusive [inhibitor, single point]
Cc1cc(C)n(CCNC(=O)c2cc(COc3ccc(F)cc3Cl)on2)n1		inconclusive [inhibitor, single point]
CN=c1nc(-c2ccccc2)n(-c2ccccc2)s1		active: 4.47 µM and active: 6.51 µM
Cn1c(=O)c2c(nc(SCc3cccnc3)n2Cc2ccc(F)cc2)n(C)c1=O		active: 23.1 µM

SMILES	activity change, negative = growth inhibition	Potency
CSc1nn(CC(=O)Nc2cc(C)ccc2C)c(N)c1S(=O)(=O)c1ccccc1		active: 6.51 µM
COc1ccc(NC(=O)C2Cc3c(-c4ccco4)ccnc3O2)cc1OC (stereo not drawn)		inconclusive [inhibitor, single point]
Cc1ccc2c(=O)cc(C(=O)Nc3c(C(=O)c4ccc(F)cc4)oc4ccccc34)oc2c1C	inactive: -5.3%	
CCCNC(=O)Cn1nc([N+](=O)[O-])c([N+](=O)[O-])c1C	inactive: -18.4%	
COc1ccc(CCNC(=O)CNC(=O)N2CC(=O)Nc3ccccc32)cc1OC	inactive: 3.64%	
CC(C)CC(=O)OCc1cc(=O)n2nc(C3CCCCC3)sc2n1		inconclusive [inhibitor, partial curve]
COc1ccc(Cl)cc1NC(=O)C(C)N(C)Cc1ccc(C(F)(F)F)cc1 (stereo not drawn)	inactive: -32.1%	
Cc1nn(-c2ccc(F)cc2)c2sc(C(=O)OCC(=O)N3CCC(C)CC3)cc12		inconclusive [inhibitor, single point]
CC1(NC(=O)Cn2cc(C(F)(F)F)ccc2=O)CCS(=O)(=O)C1 (stereo not drawn)	inactive: -1.36%	
Cn1cccc1-c1cc(C(=O)N/N=C/C=C/c2ccccc2)[nH]n1		inconclusive [inhibitor, single point]
CCOc1ccc(CCNC(=O)COC(=O)CNS(=O)(=O)c2ccc(NC(C)=O)cc2)cc1OCC	inactive: 3.49%	
Cc1cccc(C)c1OC(=O)CSc1nnc(-c2ccc3c(c2)OCO3)o1	inactive: -18.5%	
O=c1ccc(/C=C/c2ccccc2)nn1Cc1ccccc1	inactive: -27%	
COc1cccc(CNc2nc3cc(-c4ccc(OC)cc4C)sc3c(=O)n2C)c1		inconclusive [inhibitor, single point]
COc1cc(CN(C)CCc2ccccc2)ccc1OCc1ccccc1		active: 25.9 µM
COc1ccccc1OCC(=O)Nc1ccc(S(=O)(=O)N2CCCC2)cc1		inconclusive [inhibitor, single point]
Clc1ccccc1C1CC(c2ccccc2)=Nc2ccccc2N1 (stereo not drawn)		inconclusive [inhibitor, single point]
Cc1cc(C(=O)O)ccc1-c1ccc(/C=C2\NC(=O)N(Cc3ccccc3Cl)C2=O)o1	inactive: -12.8%	
Cc1cc(C)c2sc(N(CCCN(C)C)C(=O)c3ccc(S(=O)(=O)N(C)Cc4ccccc4)cc3)nc2c1		inconclusive [inhibitor, single point]
COC(=O)c1ccc(C2C(C(=O)OCC(C)C)=C(C)N=C3SCCC(=O)N32)cc1 (stereo not drawn)	inconclusive: -31.6% [inhibitor]	
Nc1c2c(nc3ccccc13)CSCC2		inconclusive [inhibitor, single point]
COc1ccc(-c2noc(COC(=O)c3ccco3)n2)cc1OC	inactive: 0.902%	
CCC(=O)NC(=S)Nc1cccc(C(C)=O)c1		inconclusive [inhibitor, partial curve, poor fit]
CCCCCCCSc1nnc(N)s1	inactive: -0.721%	
Cc1ccc(N(C(C)C(=O)Nc2cc(Cl)ccc2Oc2ccccc2)S(C)(=O)=O)cc1 (stereo not drawn)		inconclusive [inhibitor, single point]
CCOc1ccc(CC(C(=O)NN)C(=O)NN)cc1CN(C)C	inactive: -7.09%	

SMILES	activity change, negative = growth inhibition	Potency
CCOc1nc(-c2ccccc2O)nc2ccccc12	inactive: -18%	
Cn1c(N)c(S(=O)(=O)NCc2ccccc2Cl)c(=O)n(C)c1=O	inactive: -44.1%	
CC(C)Oc1nc(-c2ccc(Cl)cc2)nc2ccccc12	inconclusive: -33% [inhibitor]	
Cc1ccc(S(=O)(=O)N(C)C[C@H]2Oc3ccc(NC(=O)C4CCCCC4)cc3C(=O)N([C@H](C)CO)C[C@H]2C)cc1		active: 20.6 µM
Cc1cnc(NC(=O)Cc2ccc(C)c(C)c2)s1		inconclusive [inhibitor, partial curve, poor fit]
CCCN(C(=O)COC(=O)CNS(=O)(=O)c1ccc(NC(C)=O)cc1)C1CCS(=O)(=O)C1 (stereo not drawn)	inactive: 24.2%	
Cc1cc(C(=O)Nc2nc3c(s2)CCCC3)no1	inactive: 4.29%	
COc1ccc(Nc2c(-c3ccsc3)nc3nc(C)cc(C)n23)cc1		inconclusive [inhibitor, single point]
Cc1cccc(NC(=O)N2CCC(NC(=O)C3CCCCC3)CC2)c1	inactive: 6.44%	
Cc1sc2nc(CSCC(=O)N(CCC#N)c3ccccc3)[nH]c(=O)c2c1C		inconclusive [inhibitor, single point]
CCOC(=O)c1cc(-c2ccccc2)sc1NC(=O)COC(=O)c1ccc(Cl)c(S(N)(=O)=O)c1		inconclusive [inhibitor, partial curve]
CCC(=NN=C(CC)c1ccccc1O)c1ccccc1O		inconclusive [inhibitor, single point]
O=C1C=C(c2ccc(OC(F)(F)F)cc2)C[C@@H](c2ccc(F)cc2)C1		inconclusive [inhibitor, single point]
CCN(CCCNC(=O)c1cc2c(-c3cccc(OC)c3)nn(C)c2s1)Cc1ccccc1		inconclusive [inhibitor, single point]
COc1ccc(N2C(=O)C(CN3CCCCC3)C2c2ccccc2)cc1 (stereo not drawn)		active: 13 µM
O=C(Oc1cccc2cccnc12)c1ccc2c(c1)OCCO2		active: 1.03 µM
CC(C)C(=O)Nc1nnc(S(=O)(=O)N2c3ccccc3CC2C)s1 (stereo not drawn)		inactive
O=C(Nc1nnc(-c2ccc(F)cc2)o1)c1ccco1		inconclusive [inhibitor, single point]
CCSc1nc2ccccc2c(OCc2cc(C(=O)OC)ccc2OC)c1C(=O)OC		inconclusive [inhibitor, partial curve, poor fit]
NNC(=O)c1cc2c(ccc3ccccc32)o1		inconclusive [inhibitor, single point]
COC(=O)c1c(C)sc(-c2c(-c3ccc(OC)c(F)c3)[nH]c3c2c(=O)n(C)c(=O)n3C)c1O	inactive: 6.07%	
CC(NC(=O)C1CC(=O)N(c2ccc3c(c2)OCCO3)C1)c1ccccc1 (stereo not drawn)	inactive: -6.84%	
COc1cc(OC)cc(C(=O)Nc2ccc3c(c2)n(C)c(=O)n3C)c1	inactive: 7.46%	
COc1ccc(C2CC(c3cc(OC)ccc3OC)n3nnnc3N2)cc1 (stereo not drawn)	inactive: -24.4%	
Cc1ccc(C(C)C)c(OCC(=O)Nc2ccc(O)c(-c3nc4cc(Cl)ccc4o3)c2)c1	inactive: -6.78%	
O=C1c2ccccc2C(c2nnnn2Cc2ccccc2)N1Cc1ccc(F)cc1 (stereo not drawn)		inconclusive [inhibitor, partial curve]
